# Some of the results follow.
# Legend:
# Assay in all cases: glycan array binding signal (z-score within array); higher = stronger binding
# Details in all cases: glycan notation: IUPAC condensed, linker removed
# [1] = biological target: Gal(b1-4)GlcNAc(b1-6)Gal(b1-4)GlcNAc
# Procedure, shortened: (§1)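 The binding signal is a Z-score computed within each array and averaged over linkers. Arrays of the same protein sequence at different concentrations or buffers were also averaged together. Data originate from 3228 arrays in the Consortium for Functional Glycomics database, kept only where the protein sequence was available.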
# [2] = biological target: Gal(b1-4)GlcNAc(b1-6)GalNAc
# Procedure, shortened: as §1
# [3] = biological target: Gal(b1-4)GlcNAc(b1-6)[Gal(b1-3)]GalNAc
# Procedure, shortened: as §1
# [4] = biological target: Gal(b1-4)GlcNAc(b1-6)[Gal(b1-4)GlcNAc(b1-3)]GalNAc
# Procedure, shortened: as §1
# Gal(b1-4)GlcNAc6P = biological target: Gal(b1-4)GlcNAc6P
# Procedure, shortened: as §1
# Gal(b1-6)Gal = biological target: Gal(b1-6)Gal
# Procedure, shortened: as §1
# Gal3S(b1-3)GalNAc = biological target: Gal3S(b1-3)GalNAc
# Procedure, shortened: as §1
# Gal3S(b1-3)GlcNAc = biological target: Gal3S(b1-3)GlcNAc
# Procedure, shortened: as §1
# [5] = biological target: Gal3S(b1-3)[Fuc(a1-4)]GlcNAc
# Procedure, shortened: as §1
# Gal3S(b1-4)Glc = biological target: Gal3S(b1-4)Glc
# Procedure, shortened: as §1
# Gal3S(b1-4)Glc6S = biological target: Gal3S(b1-4)Glc6S
# Procedure, shortened: as §1
# Gal3S(b1-4)GlcNAc = biological target: Gal3S(b1-4)GlcNAc
# Procedure, shortened: as §1
# [6] = biological target: Gal3S(b1-4)[Fuc(a1-3)]Glc6S
# Procedure, shortened: as §1
# [7] = biological target: Gal3S(b1-4)[Fuc(a1-3)]GlcNAc
# Procedure, shortened: as §1
# [8] = biological target: Gal3S(b1-4)[Fuc(a1-3)]GlcNAc6S
# Procedure, shortened: as §1
# Gal3S4S(b1-4)GlcNAc = biological target: Gal3S4S(b1-4)GlcNAc
# Procedure, shortened: as §1
# Gal3S6S(b1-4)GlcNAc = biological target: Gal3S6S(b1-4)GlcNAc
# Procedure, shortened: as §1
# Gal3S6S(b1-4)GlcNAc6S = biological target: Gal3S6S(b1-4)GlcNAc6S
# Procedure, shortened: as §1
# Gal4S(b1-4)GlcNAc = biological target: Gal4S(b1-4)GlcNAc
# Procedure, shortened: as §1
# Gal4S6S(b1-4)GlcNAc = biological target: Gal4S6S(b1-4)GlcNAc
# Procedure, shortened: as §1
# Gal6P(b1-4)GlcNAc = biological target: Gal6P(b1-4)GlcNAc
# Procedure, shortened: as §1
# Gal6S(b1-3)GlcNAc = biological target: Gal6S(b1-3)GlcNAc
# Procedure, shortened: as §1
# Gal6S(b1-3)GlcNAc6S = biological target: Gal6S(b1-3)GlcNAc6S
# Procedure, shortened: as §1
# Gal6S(b1-4)Glc = biological target: Gal6S(b1-4)Glc
# Procedure, shortened: as §1
# Gal6S(b1-4)Glc6S = biological target: Gal6S(b1-4)Glc6S
# Procedure, shortened: as §1
# Gal6S(b1-4)GlcNAc = biological target: Gal6S(b1-4)GlcNAc
# Procedure, shortened: as §1
# Gal6S(b1-4)GlcNAc6S = biological target: Gal6S(b1-4)GlcNAc6S
# Procedure, shortened: as §1
# GalNAc(a1-3)Gal = biological target: GalNAc(a1-3)Gal
# Procedure, shortened: as §1
# GalNAc(a1-3)GalNAc = biological target: GalNAc(a1-3)GalNAc
# Procedure, shortened: as §1
# [9] = biological target: GalNAc(a1-3)GalNAc(b1-3)Gal(a1-4)Gal(b1-4)Glc
# Procedure, shortened: as §1
# [10] = biological target: GalNAc(a1-3)GalNAc(b1-3)Gal(a1-4)Gal(b1-4)GlcNAc
# Procedure, shortened: as §1
# GalNAc(b1-3)Gal = biological target: GalNAc(b1-3)Gal
# Procedure, shortened: as §1
# [11] = biological target: GalNAc(b1-3)Gal(a1-4)Gal(b1-4)GlcNAc
# Procedure, shortened: as §1
# [12] = biological target: GalNAc(b1-3)Gal(a1-4)Gal(b1-4)GlcNAc(b1-3)Gal(b1-4)Glc
# Procedure, shortened: as §1
# [13] = biological target: GalNAc(b1-3)Gal(a1-6)Gal(b1-4)Glc
# Procedure, shortened: as §1
# GalNAc(b1-3)GalNAc = biological target: GalNAc(b1-3)GalNAc
# Procedure, shortened: as §1
# GalNAc(b1-3)GlcNAc = biological target: GalNAc(b1-3)GlcNAc
# Procedure, shortened: as §1
# GalNAc(b1-4)Gal(b1-4)Glc = biological target: GalNAc(b1-4)Gal(b1-4)Glc
# Procedure, shortened: as §1
binder,measurement,setting,value
"Sebin2 (Coprinopsis cinerea), A8PE78 (protein) MTTPFYAYCHNVQDDNTWRLGLVFANRSTADEWWRAISEATSSIPITKSITRVTPQYYTHDIRVWNMYNFFVDGNIKSISDKFRGRLFITLEYDRSGRGVSVFPPLHIVDHVSGNWYYIRSKTAPHLFWFYDETRNAIYASKEKRTRFKVSIRNPSPQTPKDAIMINSDDVVIHIKESLYVGVDSYLGHIIPTRAYRTFKFGELEGGAIAGIEVAENAEERCSSTFDGASLYFVGPDSSSPGEPWELV",glycan array binding signal (z-score),[1],-0.109
same,glycan array binding signal (z-score),[2],0.266
same,glycan array binding signal (z-score),[3],-0.329
same,glycan array binding signal (z-score),[4],-0.289
same,glycan array binding signal (z-score),Gal(b1-4)GlcNAc6P,0.129
same,glycan array binding signal (z-score),Gal(b1-6)Gal,0.35
same,glycan array binding signal (z-score),Gal3S(b1-3)GalNAc,-0.205
same,glycan array binding signal (z-score),Gal3S(b1-3)GlcNAc,-0.368
same,glycan array binding signal (z-score),[5],-0.168
same,glycan array binding signal (z-score),Gal3S(b1-4)Glc,0.2
same,glycan array binding signal (z-score),Gal3S(b1-4)Glc6S,0.515
same,glycan array binding signal (z-score),Gal3S(b1-4)GlcNAc,-0.453
same,glycan array binding signal (z-score),[6],0.126
same,glycan array binding signal (z-score),[7],-0.023
same,glycan array binding signal (z-score),[8],0.191
same,glycan array binding signal (z-score),Gal3S4S(b1-4)GlcNAc,-0.183
same,glycan array binding signal (z-score),Gal3S6S(b1-4)GlcNAc,0.109
same,glycan array binding signal (z-score),Gal3S6S(b1-4)GlcNAc6S,0.762
same,glycan array binding signal (z-score),Gal4S(b1-4)GlcNAc,-0.607
same,glycan array binding signal (z-score),Gal4S6S(b1-4)GlcNAc,-0.28
same,glycan array binding signal (z-score),Gal6P(b1-4)GlcNAc,-0.238
same,glycan array binding signal (z-score),Gal6S(b1-3)GlcNAc,0.18
same,glycan array binding signal (z-score),Gal6S(b1-3)GlcNAc6S,0.223
same,glycan array binding signal (z-score),Gal6S(b1-4)Glc,-0.355
same,glycan array binding signal (z-score),Gal6S(b1-4)Glc6S,0.31
same,glycan array binding signal (z-score),Gal6S(b1-4)GlcNAc,-0.138
same,glycan array binding signal (z-score),Gal6S(b1-4)GlcNAc6S,0.392
same,glycan array binding signal (z-score),GalNAc(a1-3)Gal,0.179
same,glycan array binding signal (z-score),GalNAc(a1-3)GalNAc,-0.007
same,glycan array binding signal (z-score),[9],-0.175
same,glycan array binding signal (z-score),[10],-0.344
same,glycan array binding signal (z-score),GalNAc(b1-3)Gal,-0.244
same,glycan array binding signal (z-score),[11],-0.059
same,glycan array binding signal (z-score),[12],-0.013
same,glycan array binding signal (z-score),[13],-0.623
same,glycan array binding signal (z-score),GalNAc(b1-3)GalNAc,-0.129
same,glycan array binding signal (z-score),GalNAc(b1-3)GlcNAc,-0.347
same,glycan array binding signal (z-score),GalNAc(b1-4)Gal(b1-4)Glc,0.167

# Reference: the supplement of paper PMC8728848
